This note sets out measurements from PMC5540273 (PLoS ONE, 2017).

For some of these results: Shown are results outside the selection of strong results, which stands elsewhere. Only a part is listed here, and it is no random draw.

Settings in all cases: concentration: 1 μM,replicates: in singlicate; n = 1
For test [1], the system named is ERBB3.
The test system of test [2] is ERBB4.
For test [3], the system named is T1, ERK1.
T1 construct: gene MAPK3

The subject of test [4] is T2, ERK2.
T2 construct: gene MAPK1

The test system of test [5] is T3, ERK3.
T3 construct: gene MAPK6

The test system of test [6] is T4, ERK4.
T4 construct: gene MAPK4

Test [7] deals with T5, ERK5.
T5 construct: gene MAPK7

Test [8] relates to T6, ERK8.
T6 construct: gene MAPK15

In test [9] the test system is ERN1.
Test [10] relates to T7, FAK.
T7 construct: gene PTK2

In test [11] the test system is FER.
The test system of test [12] is FES.
For test [13], the system named is FGFR1.
The test system of test [14] is FGFR2.
The test system of test [15] is FGFR3.
Test [16] deals with FGFR4.
For test [17], the system named is FGR.
Test [18] concerns FLT1.
Test [19] relates to FLT3-autoinhibited.
For test [20], the system named is FLT3.
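Also: KINOMEscan kinase panel screen.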

`COc1ccc(C2=C(Nc3cccc(Cl)c3)C(=O)NC2=O)cc1` [SB-326892]: the “%Inh” value was found to be 34% in test [1]; 0% in test [2]; 0% in [3]; 0% in test [4]; 0% in [5]; 0% in [6]. Besides, the “%Inh” value in test [7] is listed as 0%; in test [8], 47%; in test [9], 16%; in test [10] it was 0%; in [11] it was 0%; in [12] it was 16%. For the same compound, the “%Inh” value turned out to be 29% in [13]; 7% in test [14]; 12% in [15]; 0% in [16]; 37% in test [17]; 10% in [18]. The “%Inh” value in [19] and in [20] was 0% throughout.

Consider `O=C1NC(=O)C(c2ccccc2)=C1Nc1cc(Cl)c(O)c(Cl)c1` [SB-390530], for which the “%Inh” value in [1] amounted to 12%; in [2], 0%; in test [3] it was 0%; in test [4], 10%; in test [5], 0%; in test [6], 0%. The “%Inh” value in test [7] was 0%; in test [8] it was 10%; in test [9] it was 22%; in test [10], 16%; in test [11], 0%; in [12], 5%. Besides, the “%Inh” value in test [13] was found to be 3%; in test [14], 5%; in [15], 8%; in [16] it was 0%; in [17] it was 12%; in test [18], 13%. In addition, the results for the “%Inh” value in [19] and in [20] were 33% and 13%, respectively.

With `COc1cccc(C2=C(Nc3ccc(SC)cc3)C(=O)NC2=O)c1` [SB-331032], the “%Inh” value turned out to be 27% in test [1]; 18% in test [2]; 0% in [3]; 11% in test [4]; 0% in test [5]; 4% in test [6]. Moreover, the “%Inh” value was determined as 0% in [7]; 10% in [8]; 46% in test [9]; 8% in test [10]; 20% in test [11]; 8% in test [12]. In addition, the “%Inh” value in test [13] came to 8%; in test [14], 0%; in [15] it was 0%; in [16], 0%; in test [17], 6%; in test [18], 0%. For the same compound, the “%Inh” value was found to be 0% in [19] and 16% in [20].

On to `O=C1NC(=O)c2c1c(-c1ccccc1)cc1[nH]c3ccc(O)cc3c21`, for which the “%Inh” value in [1] is 5%; in test [2] it was 28%; in [3], 0%; in [4], 8%; in test [5], 0%; in test [6] it was 23%. For the same compound, the “%Inh” value is reported as 0% in test [7]; 95.1% in [8]; 35% in test [9]; 14% in test [10]; 0% in test [11]; 11% in [12]. In addition, the “%Inh” value in [13] worked out at 25%; in test [14], 23%; in test [15] it was 15%; in test [16], 13%; in [17] it was 31%; in test [18] it was 2%. In addition, the “%Inh” value in [19] is 44%; in test [20], 67%.

Regarding `O=C(O)c1ccc(-c2nc(-c3ccc(F)cc3)c(-c3ccncc3)[nH]2)cc1` [SB-202620], the “%Inh” value is on record as 0% in [1]; 0% in [2]; 19% in [3]; 25% in test [4]; 0% in [5]; 10% in test [6]. Also, the “%Inh” value in test [7] worked out at 0%; in [8], 43%; in test [9] it was 0%; in [10] it was 19%; in [11], 14%; in test [12] it was 17%. Moreover, the “%Inh” value in test [13] amounted to 24%; in [14], 0%; in [15] it was 0%; in test [16], 4%; in test [17], 22%; in test [18], 0%. Also, the “%Inh” value in [19] was determined as 0%; in [20], 73%.

With `O=C1NC(=O)C(c2ccc(Cl)cc2)=C1Nc1ccc(O)c(Cl)c1` [SB-405367], the “%Inh” value in test [1] amounted to 0%; in test [2], 4%; in test [3], 0%; in test [4], 7%; in [5], 0%; in test [6], 1%. Further, the “%Inh” value came out at 0% in test [7]; 3% in test [8]; 7% in test [9]; 0% in [10]; 0% in [11]; 0% in [12]. The “%Inh” value is on record as 0% in test [13]; 0% in test [14]; 0% in test [15]; 0% in [16]; 2% in test [17]; 0% in test [18]. Further, the “%Inh” value in test [19] was determined as 6%; in test [20], 26%.

Consider `CSc1ccc(NC2=C(c3cccc(Cl)c3)C(=O)NC2=O)cc1` [SB-341528], for which the “%Inh” value in test [1] was determined as 0%; in [2], 20%; in test [3], 0%; in test [4], 0%; in [5], 0%; in [6] it was 0%. For the same compound, the “%Inh” value in test [7] was determined as 0%; in test [8] it was 0%; in [9] it was 0%; in test [10], 5%; in test [11], 0%; in test [12], 0%. In addition, the “%Inh” value in test [13] came to 0%; in [14], 0%; in test [15], 0%; in [16], 10%; in [17], 0%; in test [18], 6%. For the same compound, the “%Inh” value in test [19] and in test [20] was 0% in each case.

In the case of `Cc1ccc(C)c(Oc2nccc(-c3c(-c4ccc(F)cc4)ncn3C3CCNCC3)n2)c1.O=C(O)C(F)(F)F.O=C(O)C(F)(F)F.O=C(O)C(F)(F)F` [SB-284852], the “%Inh” value in [1] came to 17%; in test [2] it was 0%; in test [3] it was 0%; in test [4] it was 19%; in [5], 0%; in [6] it was 0%. Also, the “%Inh” value in test [7] came to 0%; in test [8], 7%; in [9], 0%; in test [10] it was 6%; in [11] it was 0%; in test [12] it was 12%. The “%Inh” value is listed as 10% in test [13]; 0% in [14]; 3% in test [15]; 3% in [16]; 60% in test [17]; 12% in test [18]. The “%Inh” value came to 0% in test [19] and 6% in test [20].
